Measured values as given in PubChem BioAssay AID1963576 (National Center for Advancing Translational Sciences (NCATS), 2024).
Hit rate of the full screen: of about 46,000 compounds, about 60 (0.1%) were called active. Not shown: some 3% with an inconclusive outcome. Calls come from the whole dose curve; as a rule, active = well fitted inhibition curve with a large enough effect; inconclusive = small, poorly fitted or top-dose-only effect; inactive = no such curve, though single readings can be large or run the other way. This is one part of the list.

Experiment: Primary qHTS assay for Inhibitors of ovarian cancer metastasis using an organotypic tumor microenvironment (TME) model. Note: nearly all actives have a fitted effect of over 65% in size.
Conditions: SKOV3ip1-GFP adhesion/invasion on 3D omental model, fluorescence; series mostly up to 45.8 µM; activity change, negative = inhibition: at the top concentration
Text: PI: Ernst Lengyel MD., Ph.D. Department of Obstetrics and Gynecology, Section of Gynecologic Oncology University of Chicago Medicine, Chicago, Illinois. The tumor microenvironment (TME) is a key determinant of metastatic efficiency. We performed a quantitative high-throughput screen (qHTS) of diverse medicinal chemistry tractable scaffolds (44,420 compounds) and pharmacologically active small molecules (386 compounds) using a layered organotypic, robust assay representing the ovarian cancer metastatic TME. This 3D model contains primary human mesothelial cells, fibroblasts, and extracellular matrix, to which fluorescently labeled ovarian cancer cells are added. Initially, 100 compounds inhibiting ovarian cancer adhesion/invasion to the 3D model in a dose-dependent manner were identified. Of those, eight compounds were confirmed active in five high-grade serous ovarian cancer cell lines and were further validated in secondary in vitro and in vivo biological assays. […] Specifically, NCGC00117362 and PP-121 inhibited ovarian cancer adhesion, invasion, and proliferation, whereas milciclib inhibited ovarian cancer invasion and proliferation. […] To evaluate the clinical potential of NCGC00117362, structure - activity relationship studies were performed. […] The three compounds identified have promise as therapeutics for prevention and treatment of ovarian cancer metastasis.
PROTOCOL TABLE (as described by Inglese J, Shamu CE and Guy RK. 2007) SEQUENCE No. (e.g., 1, 2, 3, etc.); […] (e.g., Cells, Incubation, Reagent, etc.); VALUE; DESCRIPTION. 1; Cells; 4 uL; primary human omental fibroblast, black, clear bottom, low base, 1536-well Aurora assay plate. 2; Incubation; 48 hr; 37C. 3; Cells; 3 uL; 1,200 SKOV3ip1-GFP cells. 4; Compounds; 23nL; acoustic dispenser. 5; Incubation; 2 hr; room temperature. 6; Incubation; 16 hr; 37C. 7; Wash; 5 uL; 1x PBS. 8; Fixing; 5 uL; 4% paraformaldehyde (PFA). 9; Incubation; 15 min; room temperature 10; Wash, 5 uL; 1x PBS. 11; Detection; Fluorescence, excitation filter 488 nm, emission filter 509 nm. NOTES (numbers refer to Sequence numbers above) 1. For the 1,536-well format, 40 primary human omental fibroblasts and 400 mesothelial cells were seeded with 0.02 µg fibronectin and 0.02 µg collagen type I in 4 µL of growth media (2.3 mm2; Supplementary Fig. S1A). 2. Assay plates were incubated for 48 hours at 37 C. 3. After incubation, 1,200 SKOV3ip1-GFP were seeded in 3 µL of serum-free media (growth media minus FBS) on top of primary human omental cells. 4. Compounds or controls were added to each well immediately after the addition of the cancer cells. Compounds were screened in four doses (0.36-46 µmol/L), and the plates contained the positive control (Tomatine) in eight doses (0.035-75 µmol/L) and DMSO (equal volume controls) 5 - 6. The plates were incubated at room temperature for 2 hours and then at 37 degrees C for 16 hours. 7 - 10. Following incubation, the media were aspirated and each well washed with PBS (5 µL) and then fixed with 4% paraformaldehyde (PFA; 5 µL). After 15 minutes, the PFA solution was aspirated, PBS (5 µL) was added. 11. The number of GFP-labeled cells analyzed using a fluorescent cytometer TTP LabTech Acumen eX3 using 488 nm excitation filter and 509 nm emission filter. Data was normalized to the DMSO treated for negative and Tomatine treated wells for positive control. REFERENCES: Inglese J, Shamu CE and Guy RK, Reporting data from high throughput screening of small molecule libraries, Nature Chemical Biology, 2007, 3(8): 438-441. doi.org/10.1038/nchembio0807-438. Yasgar A, Shinn P, Jadhav A, Auld DS, Michael S, Zheng W, Austin CP, Inglese J and Simeonov A, Compound Management for Quantitative High-Throughput Screening. J. Assoc. Lab. Auto., 2008, 13: 79-89. doi: 10.1016/j.jala.2007.12.004.

Activity change, negative = inhibition, inactive:
CN(C)S(=O)(=O)N(CC(=O)Nc1ccc(Br)cc1F)c1ccccc1 -3.93%
COc1ccc(CCNc2ncnc3c2nnn3C)cc1OC 14.5%
CCc1ccc(NC(=O)CSc2nc(-c3ccccc3)no2)cc1 -3.63%
CCc1ccc(NC(=O)C(=O)NCCc2sc(-c3ccc(OC)c(OC)c3)nc2C)cc1 9.17%
COc1cc(OC)cc(C(=O)NCCc2csc(-c3cccc(C)c3)n2)c1 -15.1%
CC1CCCCN1C(=O)c1ccc2c(c1)N(Cc1ccc(Cl)cc1)C(=O)c1ccccc1S2=O (stereo not drawn) 5.3%
Cc1c(C(=O)Nc2cccc(F)c2)sc2nc(-c3cc4ccccc4oc3=O)[nH]c(=O)c12 -6.82%
COc1ccc(NC(=O)c2c(NCc3cccs3)sc3c2CCCCC3)cc1 -9.61%
CN(C1CCCCC1)S(=O)(=O)c1ccc(F)c(C(=O)Nc2ccc(C(F)(F)F)cc2)c1 -1.56%
Cc1ccc(-n2nc(C)c3c(C)cc(=O)n(CC(=O)Nc4ccc(C(C)C)cc4)c32)cc1 4.28%
COc1cccc(C(c2sc3nc(-c4ccco4)nn3c2O)N2CCCC2)c1 (stereo not drawn) -0.148%
Cc1nnc(N2CCN(c3ccc(Cl)cc3)CC2)c2c1nnn2Cc1ccc(F)cc1 -2.46%
CC(C)C(=O)NC1CC(=O)N(c2ccc3c(c2)OCCO3)C1 (stereo not drawn) -0.78%
COc1ccccc1Cn1ccn(CC(=O)Nc2c(C)cc(C)cc2C)c(=O)c1=O -6.83%
CCc1cccc(NC(=O)c2cc(-c3ccccc3)n[nH]2)c1 -4.05%
COc1cccc(OCCCn2c(-c3ccc(Cl)cc3)nc3ccccc3c2=O)c1 5.16%
O=C(c1ccc2c(c1)CCN2S(=O)(=O)c1ccc(Cl)cc1)N1CCN(c2ccccc2F)CC1 19.8%
Cc1ccccc1Cn1c(=O)n(Cc2ccco2)c(=O)c2oc3ccccc3c21 0.177%
CCCCNC(=O)c1cnc2sc(N3CCCCC3)nn2c1=O -8.9%
CCOC(=O)C1CCN(C(=O)c2nn(-c3ccc(C)cc3)c(=O)c3c2c2ccccc2n3C)CC1 -9.52%
CCOc1ccccc1N1CC(c2nc3ccccc3n2CCCOc2ccccc2)CC1=O (stereo not drawn) 2.68%
CC(C)N(Cc1ccccc1)C(=O)c1cc2ccc3cccnc3c2[nH]1 7.34%
Cc1nc2c(c(SCC(=O)Nc3ccccc3C(F)(F)F)n1)CCC2 -9.24%
Cc1cc(OC(C)C(=O)N2CCN(CCc3ccccn3)CC2)ccc1Cl (stereo not drawn) -7.39%
Cc1c(F)cccc1NS(=O)(=O)c1cccs1 17.8%
CN(C)c1ccc(CN2CCc3nc(N4CCN(c5ccccn5)CC4)ncc3C2)cc1 -12.7%
O=C(Cc1csc2ccccc12)NCc1ccc(F)cc1 -3.76%
O=C(Nc1ccc(OC(F)(F)F)cc1)C1CCCN(S(=O)(=O)c2ccc(Br)s2)C1 (stereo not drawn) 9.69%
COc1ccc(S(=O)(=O)NC(C)C)cc1-n1cnnn1 -6.47%
COc1ccc(C(C(=O)Nc2ccc(C(C)C)cc2)N(C)C(=O)Cc2cccs2)cc1 (stereo not drawn) -7.45%
COc1cccc(NC(c2nnc(-c3ccccc3)o2)c2ccc(F)cc2Cl)c1 (stereo not drawn) 2.11%
COc1ccc(C(=O)NCC(c2cccnc2)N2CCN(c3ccccc3OC)CC2)cc1 (stereo not drawn) -2.12%
CCc1ccc(C(=O)c2cn(CC(=O)Nc3ccc4c(c3)OCCO4)c3ccc(CC)cc3c2=O)cc1 8.92%
CCCN(CCC)C(=O)c1c[nH]c2ccc(S(=O)(=O)N(C)c3ccc(OCC)cc3)cc2c1=O 2.39%
Cc1c(CCC(=O)NCc2ccc(F)cc2)c(=O)oc2cc(O)ccc12 9.48%
COc1ccc(CCNC(=O)c2ccc3c(Cl)c4c(nc3c2)CCCC4)cc1OC 123%
COCCCNC(=O)C1CCCN(c2ncnc3onc(C)c23)C1 (stereo not drawn) -32.4%
COc1ccc(Cn2c(CNC(=O)Cc3cccc([N+](=O)[O-])c3)nc3cccnc32)cc1 -2.62%
CC(=O)N1CCN(c2nc3c(F)cc(F)cc3s2)CC1 -0.582%
Cc1cccc(N2CCN(C(=O)c3cc4c(=O)[nH]c5ccc(C)cc5c4s3)CC2C)c1 (stereo not drawn) 3.18%
COc1ccc(C2c3c(oc4cc(C)cc(C)c4c3=O)C(=O)N2Cc2ccco2)cc1OC (stereo not drawn) 3.98%
COc1cccc(NC(=O)CSC2=Nc3ccccc3C3=NC(CC(=O)NCc4cccs4)C(=O)N23)c1 (stereo not drawn) 6.64%
CCOC(=O)Cn1c(=O)n(CC2CCCO2)c2nc(-c3ccccc3Cl)nc(C(N)=O)c21 (stereo not drawn) -15.3%
O=C(CCCn1c(=O)c2cccn2c2cccnc21)Nc1ccccc1C(F)(F)F -7.65%
Cc1ccc(CNC(=O)c2c(-c3ccc(Br)cc3)noc2C)o1 4.53%
O=c1c(N2CCc3ccccc3C2)csc2ccc(F)cc12 9.52%
CCOC(=O)c1ccc(CN(Cc2ccc(OC)cc2)S(=O)(=O)c2cccc(C(F)(F)F)c2)cc1 2.35%
COc1ccc(CCNC(=O)c2c(O)nc3c(C)cccn3c2=O)cc1OC 6.89%
COc1ccc(C)cc1NC(=O)c1ccc2nc(Cc3ccccc3)oc2c1 -12.2%
CCn1c2c(c(=O)n3ncc(C(=O)Nc4ccc(C(=O)OC)cc4)c13)CN(Cc1ccc(OC)cc1)CC2 -2.96%
Cc1coc2c1c(C)cc1oc(=O)c(CC(=O)NCCc3ccc(Cl)cc3)c(C)c12 9.54%
Cc1ccc(NC(=O)C(=O)NCC(c2cccnc2)N2CCN(C)CC2)cc1 (stereo not drawn) -8.04%
O=C(NCCc1ccc(Cl)cc1)C(=O)NCC(c1ccco1)S(=O)(=O)c1ccccc1 (stereo not drawn) 2.86%
Cc1c(C(=O)NCc2ccccc2)oc2ccc(S(=O)(=O)N3CCC(C)CC3)cc12 -6.41%
CCCn1c(/C=C/c2ccccc2)nc2ccccc21 -0.912%
CCn1c2ccccc2c2cc(CN3CCN(Cc4ccc(OC)c(OC)c4)CC3)ccc21 -23.5%
Cc1c(C(=O)NCCc2ccc(Cl)cc2)cccc1-n1cnc2cccnc21 -9.75%
COc1ccc(N2CCN(C(=O)c3cc(-c4ccc(C)c(F)c4)on3)CC2)cc1 -2.87%
COc1ccc(-n2c(SCC(=O)NCc3ccccc3)nc3c([nH]c4ccccc43)c2=O)cc1 -8.96%
CC(C)N(C(=O)Cn1cc(S(=O)(=O)Cc2ccc(Cl)cc2)c2ccccc21)C(C)C 4.73%
Nc1nn(-c2ccccc2)nc1C(=O)OCc1c(F)cccc1Cl -0.358%
Cc1ccc(N(Cc2cccs2)C(=O)c2ccco2)cc1 -33.5%
O=C(CCC1N=C2c3ccccc3N=C(SCC(=O)Nc3ccc(F)cc3)N2C1=O)NCc1ccco1 (stereo not drawn) 10.5%
O=C(Nc1ccc2nc3n(c(=O)c2c1)CCCCC3)c1cccc(C(F)(F)F)c1 -8.07%
Cc1cc(C(=O)NCc2ccccc2)c2c(C)nn(-c3cccc(F)c3)c2n1 -5.16%
COc1ccc(Nc2nn(-c3ccc(OC(F)(F)F)cc3)nc2C(C)=O)cc1 -8.72%
COc1ccc(NC(=O)CC2Nc3ccccc3NC2=O)cc1 (stereo not drawn) 12.1%
Cc1ccc(CNc2ccc3cc(S(=O)(=O)N4CCCCC4)ccc3n2)cc1 -6.22%
COc1ccccc1Nc1ncnc2scc(-c3ccc(F)cc3)c12 15.1%
CCCCN(C)C(=O)Cn1cnc2sc(C)c(S(=O)(=O)N3CCC(C)CC3)c2c1=O -1%
COc1cc(OC)c(NC(=O)N2CCC(CN3CCCC3)CC2)cc1Cl -0.0921%
COc1ccc(OC)c(NC(=O)c2ccc3c(Cl)c4c(nc3c2)CCCC4)c1 -2.46%

outcome, inactive:
O=C(Nc1cccc(Cl)c1)C1CCN(c2nc3ccccc3nc2C(F)(F)F)CC1
CCOC(=O)c1sc2ncn(CC(=O)Nc3cccc(C)c3)c(=O)c2c1C
O=C(NCc1ccccc1Cl)c1ccc2c(c1)N(Cc1ccccc1)C(=O)c1ccccc1S2
CCOC(=O)c1[nH]c2ccccc2c1NC(=O)c1c(F)cccc1F
COc1ccc(Nc2ncc(C(=O)N3CCN(c4ccc(OC)cc4)CC3)c3ccccc23)cc1
CCC(CC)C(=O)Nc1ccc(OCc2cc(=O)n3ccc(C)cc3n2)cc1
Cc1ccccc1Nc1nnc(-c2ccc(C)c(S(=O)(=O)N3CCN(C)CC3)c2)c2ccccc12
C#CC(C)(CC)NC(=O)Cn1nnc(-c2ccc(OCc3ccccc3Cl)cc2)n1 (stereo not drawn)
Cc1ccc(NC(=O)Cn2c(SCc3cccc(F)c3)nc3ccncc32)c(C)c1
CC(C)(C)c1ccc(C(=O)Nc2nc3nc(-c4ccccc4)cc(=O)n3[nH]2)cc1
COc1ccc(Br)cc1CNC(=O)CN1C(=O)CCCc2ccccc21
Cc1ccccc1OCC(=O)Nc1ccc(C(=O)OCc2cc(=O)n3c(C)csc3n2)cc1
Cc1ccc2oc(C(=O)Nc3nc(-c4ccc(F)cc4)ns3)c(C)c2c1
COc1ccc(CNC(=O)CSCc2cnn(-c3ccccc3)c2-n2cccc2)cc1OC
Cc1cc(C)cc(NC(=O)c2sc3nc[nH]c(=O)c3c2C)c1
CCOc1ccccc1NC(=O)C1=C(C)Nc2ncnn2C1c1sccc1C (stereo not drawn)
CC1=C(C(=O)Nc2ccccc2C)C(c2cccs2)n2nc(SCc3cc(C)ccc3C)nc2N1 (stereo not drawn)
CCOc1ccc(N(CC)C(=O)c2noc3c2COc2ccc(C)cc2-3)cc1
COc1ccccc1C(=O)Nc1c(C(=O)c2ccccc2)oc2ccccc12
CCOc1ccc(CC(=O)NCCS(=O)(=O)N2CCN(c3ccc(OC)cc3)CC2)cc1
COc1ccc(N2CCN(C(=O)CSc3nc4ccccc4nc3Cc3ccc(Cl)cc3)CC2)cc1
COc1ccc(NC(=O)c2c(N)c(C(=O)c3ccc(OC)cc3)n3ccccc23)cc1
COc1cc(Nc2nc(SCC(=O)c3ccc(Cl)c(Cl)c3)nc3ccccc23)cc(OC)c1
Cc1nn(-c2ccccc2)c2c1N(CC(=O)N1CCN(c3ccccc3F)CC1)C(=O)CS2
Cc1ccc(CNC(=O)c2ccc(CS(=O)(=O)Cc3ccc(C)cc3)o2)cc1
CCOC(=O)c1ccc(Nc2nn3c(=O)c4ccccc4nc3s2)cc1
